The other results are listed elsewhere or left out.
How the values were obtained:
Test in all cases: glycan array binding signal (z-score within array); higher = stronger binding
Settings in all cases: glycan notation: IUPAC condensed, linker removed
Neu5Ac(a2-3)Gal = molecular target: Neu5Ac(a2-3)Gal
Procedure, shortened: (§1)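 Columns mapping to the same glycan were averaged after glycan names were converted to IUPAC-condensed notation. The data come from 3228 arrays in the Consortium for Functional Glycomics database, limited to those with an available protein sequence. Binding is reported as a within-array Z-score averaged across arrays of one protein sequence and across linkers.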

[1] = molecular target: Neu5Ac(a2-3)Gal(b1-3)GalNAc
Procedure, shortened: as §1

[2] = molecular target: Neu5Ac(a2-3)Gal(b1-3)GalNAc(b1-3)Gal(a1-4)Gal(b1-4)Glc
Procedure, shortened: as §1

[3] = molecular target: Neu5Ac(a2-3)Gal(b1-3)GalNAc(b1-4)[Neu5Ac(a2-3)]Gal(b1-4)Glc
Procedure, shortened: as §1

[4] = molecular target: Neu5Ac(a2-3)Gal(b1-3)GalNAc(b1-4)[Neu5Ac(a2-8)Neu5Ac(a2-3)]Gal(b1-4)Glc
Procedure, shortened: as §1

[5] = molecular target: Neu5Ac(a2-3)Gal(b1-3)GalNAc6S
Procedure, shortened: as §1

[6] = molecular target: Neu5Ac(a2-3)Gal(b1-3)GlcNAc
Procedure, shortened: as §1

[7] = molecular target: Neu5Ac(a2-3)Gal(b1-3)GlcNAc(b1-2)Man
Procedure, shortened: as §1

[8] = molecular target: Neu5Ac(a2-3)Gal(b1-3)GlcNAc(b1-2)Man(a1-3)[GlcNAc(b1-4)][Neu5Ac(a2-3)Gal(b1-3)GlcNAc(b1-2)Man(a1-6)]Man(b1-4)GlcNAc(b1-4)GlcNAc
Procedure, shortened: as §1

[9] = molecular target: Neu5Ac(a2-3)Gal(b1-3)GlcNAc(b1-2)Man(a1-3)[Neu5Ac(a2-3)Gal(b1-3)GlcNAc(b1-2)Man(a1-6)]Man(b1-4)GlcNAc(b1-4)GlcNAc
Procedure, shortened: as §1

[10] = molecular target: Neu5Ac(a2-3)Gal(b1-3)GlcNAc(b1-3)Gal(b1-3)GlcNAc
Procedure, shortened: as §1

[11] = molecular target: Neu5Ac(a2-3)Gal(b1-3)GlcNAc(b1-3)Gal(b1-4)GlcNAc
Procedure, shortened: as §1

[12] = molecular target: Neu5Ac(a2-3)Gal(b1-3)GlcNAc(b1-3)GalNAc
Procedure, shortened: as §1

[13] = molecular target: Neu5Ac(a2-3)Gal(b1-3)GlcNAc(b1-4)Gal(b1-4)Glc
Procedure, shortened: as §1

[14] = molecular target: Neu5Ac(a2-3)Gal(b1-3)GlcNAc(b1-6)GalNAc
Procedure, shortened: as §1

[15] = molecular target: Neu5Ac(a2-3)Gal(b1-3)GlcNAc6S
Procedure, shortened: as §1

[16] = molecular target: Neu5Ac(a2-3)Gal(b1-3)[Fuc(a1-4)]GlcNAc
Procedure, shortened: as §1

[17] = molecular target: Neu5Ac(a2-3)Gal(b1-3)[Fuc(a1-4)]GlcNAc(b1-3)Gal(b1-3)[Fuc(a1-4)]GlcNAc
Procedure, shortened: as §1

[18] = molecular target: Neu5Ac(a2-3)Gal(b1-3)[Fuc(a1-4)]GlcNAc(b1-3)Gal(b1-4)[Fuc(a1-3)]GlcNAc
Procedure, shortened: as §1

[19] = molecular target: Neu5Ac(a2-3)Gal(b1-3)[GlcNAc(b1-6)]GalNAc
Procedure, shortened: as §1

[20] = molecular target: Neu5Ac(a2-3)Gal(b1-3)[Neu5Ac(a2-6)]GalNAc
Procedure, shortened: as §1

[21] = molecular target: Neu5Ac(a2-3)Gal(b1-3)[Neu5Ac(a2-6)]GlcNAc(b1-3)[Fuc(a1-3)[Gal(b1-4)]GlcNAc(b1-6)]Gal(b1-4)Glc
Procedure, shortened: as §1

[22] = molecular target: Neu5Ac(a2-3)Gal(b1-3)]Neu5Ac(a2-3)Gal(b1-4)]GlcNAc
Procedure, shortened: as §1

Neu5Ac(a2-3)Gal(b1-4)Glc = molecular target: Neu5Ac(a2-3)Gal(b1-4)Glc
Procedure, shortened: as §1

[23] = molecular target: Neu5Ac(a2-3)Gal(b1-4)GlcNAc
Procedure, shortened: as §1

[24] = molecular target: Neu5Ac(a2-3)Gal(b1-4)GlcNAc(b1-2)Man
Procedure, shortened: as §1

[25] = molecular target: Neu5Ac(a2-3)Gal(b1-4)GlcNAc(b1-2)Man(a1-3)[GlcNAc(b1-4)][Neu5Ac(a2-3)Gal(b1-4)GlcNAc(b1-2)Man(a1-6)]Man(b1-4)GlcNAc(b1-4)GlcNAc
Procedure, shortened: as §1

[26] = molecular target: Neu5Ac(a2-3)Gal(b1-4)GlcNAc(b1-2)Man(a1-3)[Neu5Ac(a2-3)Gal(b1-4)GlcNAc(b1-2)Man(a1-6)]Man(b1-4)GlcNAc(b1-4)GlcNAc
Procedure, shortened: as §1

[27] = molecular target: Neu5Ac(a2-3)Gal(b1-4)GlcNAc(b1-2)Man(a1-3)[Neu5Ac(a2-3)Gal(b1-4)GlcNAc(b1-2)Man(a1-6)]Man(b1-4)GlcNAc(b1-4)[Fuc(a1-6)]GlcNAc
Procedure, shortened: as §1

[28] = molecular target: Neu5Ac(a2-3)Gal(b1-4)GlcNAc(b1-2)Man(a1-3)[Neu5Ac(a2-6)Gal(b1-4)GlcNAc(b1-2)Man(a1-6)]Man(b1-4)GlcNAc(b1-4)GlcNAc
Procedure, shortened: as §1

[29] = molecular target: Neu5Ac(a2-3)Gal(b1-4)GlcNAc(b1-2)[Neu5Ac(a2-3)Gal(b1-4)GlcNAc(b1-4)]Man(a1-3)[GlcNAc(b1-4)][Neu5Ac(a2-3)Gal(b1-4)GlcNAc(b1-2)[Neu5Ac(a2-3)Gal(b1-4)GlcNAc(b1-6)]Man(a1-6)]Man(b1-4)GlcNAc(b1-4)GlcNAc
Procedure, shortened: as §1

[30] = molecular target: Neu5Ac(a2-3)Gal(b1-4)GlcNAc(b1-2)[Neu5Ac(a2-3)Gal(b1-4)GlcNAc(b1-4)]Man(a1-3)[GlcNAc(b1-4)][Neu5Ac(a2-3)Gal(b1-4)GlcNAc(b1-4)Man(a1-6)]Man(b1-4)GlcNAc(b1-4)GlcNAc
Procedure, shortened: as §1

[31] = molecular target: Neu5Ac(a2-3)Gal(b1-4)GlcNAc(b1-2)[Neu5Ac(a2-3)Gal(b1-4)GlcNAc(b1-6)]Man(a1-6)[Neu5Ac(a2-3)Gal(b1-4)GlcNAc(b1-2)Man(a1-3)]Man(b1-4)GlcNAc(b1-4)GlcNAc
Procedure, shortened: as §1

[32] = molecular target: Neu5Ac(a2-3)Gal(b1-4)GlcNAc(b1-2)[Neu5Ac(a2-3)Gal(b1-4)GlcNAc(b1-6)]Man(a1-6)[Neu5Ac(a2-3)Gal(b1-4)GlcNAc(b1-2)Man(a1-3)][GlcNAc(b1-4)]Man(b1-4)GlcNAc(b1-4)GlcNAc
Procedure, shortened: as §1

[33] = molecular target: Neu5Ac(a2-3)Gal(b1-4)GlcNAc(b1-3)Gal
Procedure, shortened: as §1

[34] = molecular target: Neu5Ac(a2-3)Gal(b1-4)GlcNAc(b1-3)Gal(b1-3)GlcNAc
Procedure, shortened: as §1

[35] = molecular target: Neu5Ac(a2-3)Gal(b1-4)GlcNAc(b1-3)Gal(b1-4)GlcNAc
Procedure, shortened: as §1

B1: Arath Fbox (Arabidopsis thaliana), NP_178341.1 (protein)
chain: EFTWGRKRRVKSESSPFDSFPEDCISYIISFTNPRDACVAATVSKTFESTVKSDIIWEKFLPADYESLIPPSRVFSSKKELYFSLCNDPVLFDDDKKSVWLEKASGKRCLMLSAMNLSIIWGDNPQYWQWIPIPESRFEKVAKLRDVCWFEIRGRTNTRVLSPRTRYSAYIVFKGVDKCYGFQNVAIEAAVGVVGQEPSRRLICFSEAIRRGRRNVVKPKQREDGWMEIELGEFFNDGGIMDNDEIEMSALETKQLNRKCGLIIQGIEIRPAKILAAAAASFLEQKLISEEDLNSAVDHHHHHH
Q: How did the “glycan array binding signal (z-score)” value (Neu5Ac(a2-3)Gal) turn out when B1 was run?
A: 1.31

Q: What about the “glycan array binding signal (z-score)” value [1] of the same binder?
A: -0.605

Q: And the “glycan array binding signal (z-score)” value [2]?
A: -0.412

Q: What about the “glycan array binding signal (z-score)” value [3] of the same binder?
A: -0.594

Q: What about the “glycan array binding signal (z-score)” value [4] of the same binder?
A: -0.392

Q: What about the “glycan array binding signal (z-score)” value [5] of the same binder?
A: -0.626

Q: What about the “glycan array binding signal (z-score)” value [6] of the same binder?
A: -0.693

Q: What about the “glycan array binding signal (z-score)” value [7] of the same binder?
A: -0.092

Q: What about the “glycan array binding signal (z-score)” value [8] of the same binder?
A: -0.608

Q: And the “glycan array binding signal (z-score)” value [9]?
A: -0.599

Q: What about the “glycan array binding signal (z-score)” value [10] of the same binder?
A: -0.74

Q: And the “glycan array binding signal (z-score)” value [11]?
A: -0.661

Q: What about the “glycan array binding signal (z-score)” value [12] of the same binder?
A: -0.254

Q: What about the “glycan array binding signal (z-score)” value [13] of the same binder?
A: -0.518

Q: What about the “glycan array binding signal (z-score)” value [14] of the same binder?
A: -0.024

Q: What about the “glycan array binding signal (z-score)” value [15] of the same binder?
A: -0.336

Q: And the “glycan array binding signal (z-score)” value [16]?
A: -0.597

Q: And the “glycan array binding signal (z-score)” value [17]?
A: 0.221

Q: What about the “glycan array binding signal (z-score)” value [18] of the same binder?
A: -0.67

Q: What about the “glycan array binding signal (z-score)” value [19] of the same binder?
A: -0.711

Q: And the “glycan array binding signal (z-score)” value [20]?
A: -0.499

Q: What about the “glycan array binding signal (z-score)” value [21] of the same binder?
A: 0.154

Q: And the “glycan array binding signal (z-score)” value [22]?
A: 1.07

Q: What about the “glycan array binding signal (z-score)” value (Neu5Ac(a2-3)Gal(b1-4)Glc) of the same binder?
A: -0.675

Q: And the “glycan array binding signal (z-score)” value [23]?
A: -0.387

Q: What about the “glycan array binding signal (z-score)” value [24] of the same binder?
A: 0.422

Q: And the “glycan array binding signal (z-score)” value [25]?
A: -0.75

Q: What about the “glycan array binding signal (z-score)” value [26] of the same binder?
A: -0.772

Q: And the “glycan array binding signal (z-score)” value [27]?
A: -0.708

Q: And the “glycan array binding signal (z-score)” value [28]?
A: -0.749

Q: And the “glycan array binding signal (z-score)” value [29]?
A: -0.431

Q: And the “glycan array binding signal (z-score)” value [30]?
A: -0.448

Q: And the “glycan array binding signal (z-score)” value [31]?
A: -0.525

Q: What about the “glycan array binding signal (z-score)” value [32] of the same binder?
A: -0.75

Q: What about the “glycan array binding signal (z-score)” value [33] of the same binder?
A: -0.691

Q: What about the “glycan array binding signal (z-score)” value [34] of the same binder?
A: -0.752

Q: What about the “glycan array binding signal (z-score)” value [35] of the same binder?
A: -0.64

— the supplement of paper PMC8728848
